According to PMC11637378, “Optogenetic screening of MCT1 activity implicates a cluster of non-steroidal anti-inflammatory drugs (NSAIDs) as inhibitors of lactate transport” (PLOS ONE, 2024):
Where a name gives a salt, the structure may show the parent alone. Read-outs that look alike come from different tables or passages of the source.

Molecular target: T1, R. norvegicus MCT1 (F360C) (UniProt P36035+P53987, F360C)
T1 sequence (P36035+P53987 with tags, fused parts or gaps P53987:F360C): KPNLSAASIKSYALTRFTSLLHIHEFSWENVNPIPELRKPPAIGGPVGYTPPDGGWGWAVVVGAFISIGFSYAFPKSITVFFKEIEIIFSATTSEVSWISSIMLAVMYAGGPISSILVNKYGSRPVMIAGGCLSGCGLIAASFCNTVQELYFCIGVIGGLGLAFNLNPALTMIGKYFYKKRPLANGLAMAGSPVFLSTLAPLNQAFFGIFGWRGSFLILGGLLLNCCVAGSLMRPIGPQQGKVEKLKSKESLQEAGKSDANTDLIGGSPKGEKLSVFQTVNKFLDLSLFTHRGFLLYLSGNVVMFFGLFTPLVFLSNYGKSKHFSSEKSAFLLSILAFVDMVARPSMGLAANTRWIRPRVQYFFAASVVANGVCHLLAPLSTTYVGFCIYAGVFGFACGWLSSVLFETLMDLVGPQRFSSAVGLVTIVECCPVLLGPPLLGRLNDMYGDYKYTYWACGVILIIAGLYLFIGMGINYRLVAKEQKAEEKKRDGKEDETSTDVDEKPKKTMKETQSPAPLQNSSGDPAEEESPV
Format: cell-based

| Structure (SMILES) | Day1 | Day2 | Fraction | Percent AZD3965 [%] | Z.score | Z-score | also measured |
| --- | --- | --- | --- | --- | --- | --- | --- |
| CC[C@H](c1ccc(O)cc1)[C@@H](CC)c1ccc(O)cc1 [HEXESTROL] | – | – | – | – | – | – | Fraction (10 μM): 0.3476; Percent AZD3965 (10 μM): 64.1097%; Z.score (10 μM): -3.235 |
| CCCCCCc1ccc(O)cc1O [HEXYLRESORCINOL] | 0.2333 | 0.7463 | 0.3126 | 74.3516 | -5.11 | – | – |
| CC[C@H](c1ccc(O)cc1)[C@@H](CC)c1ccc(O)cc1 [Hexestrol] | 0.2767 | 0.796 | 0.3476 | – | -3.235 | – | Percent: 64.1097% |
| O=c1cc(O)cc(/C=C/c2ccc(O)c(O)c2)o1 [Hispidin] | 0.1239 | 0.8402 | 0.1475 | – | -5.56 | – | Percent: 98.8018%; Fraction (10 μM): 0.1475; Percent AZD3965 (10 μM): 98.8018%; Z.score (10 μM): -5.56 |
| C=CCc1ccc(O)c(-c2ccc(O)c(CC=C)c2)c1 [Honokiol] | 0.2643 | 0.7615 | 0.3471 | 63.5702 | -3.314 | – | Percent: 63.5702% |
| O=C(Nc1cc(C(F)(F)F)cc(C(F)(F)F)c1)c1cc(Cl)ccc1O [IMD 0354] | 0.1382 | 0.8884 | 0.1556 | 99.7056 | -5.195 | – | – |
| CCC(Cc1c(I)cc(I)c(N)c1I)C(=O)O (stereo not drawn) [IOPANIC ACID] | 0.2411 | 0.8091 | 0.298 | 71.6913 | -4.687 | – | – |
| Oc1ccc2ccccc2c1SSc1c(O)ccc2ccccc12 [IPA-3] | 0.0446 | 0.4685 | 0.0952 | 111.095 | -5.788 | – | – |
| CC1(C)C=Cc2c(c3c(c4c(=O)c(-c5ccc(O)c(O)c5)coc24)OC(C)(C)CC3)O1 [ISOPOMIFERIN] | – | – | – | – | – | – | Fraction (10 μM): 0.4279; Percent AZD3965 (10 μM): 48.4955%; Z.score (10 μM): -4.042 |
| CCC(C)n1ncn(-c2ccc(N3CCN(c4ccc(OC[C@H]5CO[C@](Cn6cncn6)(c6ccc(Cl)cc6Cl)O5)cc4)CC3)cc2)c1=O.Cl.Cl (stereo partly drawn) [ITRACONAZOLE HYDROCHLORIDE] | 0.4825 | 0.8348 | – | – | – | – | Fraction (10 μM): 0.578; Percent AZD3965 (10 μM): 27.217%; Z.score (10 μM): -3.273 |
| CC(C)Cc1ccc(C(C)C(=O)O)cc1 (stereo not drawn) [Ibuprofen, reference compound] | – | – | – | 16.6559 | – | -1.147 | – |
| CC(=O)[C@]1(O)Cc2c(O)c3c(c(O)c2[C@@H](O[C@H]2C[C@H](N)[C@H](O)[C@H](C)O2)C1)C(=O)c1ccccc1C3=O [Idarubicin HCl] | 0.1044 | 0.8547 | 0.1221 | 106.268 | -4.347 | – | – |
| CC(=O)[C@]1(O)Cc2c(O)c3c(c(O)c2[C@@H](O[C@H]2C[C@H](N)[C@H](O)[C@H](C)O2)C1)C(=O)c1ccccc1C3=O [Idarubicin] | 0.0863 | 0.8064 | – | – | – | – | Fraction (10 μM): 0.107; Percent AZD3965 (10 μM): 106.927%; Z.score (10 μM): -6.017 |
| CC(C)Cn1cnc2c(N)nc3ccccc3c21 [Imiquimod] | 0.0717 | 0.8131 | 0.08818 | 111.279 | -5.088 | – | Percent: 111.279% |
| O=C1Nc2ccccc2/C1=C1/Nc2ccccc2/C1=N\O [Indirubin-3'-oxime] | 0.3455 | 0.8721 | – | – | – | – | Fraction (10 μM): 0.3962; Percent AZD3965 (10 μM): 47.0181%; Z.score (10 μM): -3.436 |
| COc1ccc2c(c1)c(CC(=O)O)c(C)n2C(=O)c1ccc(Cl)cc1 [Indometacin] | – | – | – | 15.9426 | – | -0.9786 | – |
| CC(C(=O)O)c1ccc(N2Cc3ccccc3C2=O)cc1 (stereo not drawn) [Indoprofen] | – | – | – | -3.347 | – | 0.23 | – |
| CC(C)NNC(=O)c1ccncc1.O=P(O)(O)O [Iproniazid phosphate, reference compound] | – | – | – | – | – | – | Day1 (OD600 after 24 hours non-permissive dark conditions): 0.56; Day2 (OD600 after additional 24 hours permissive conditions): 0.8314; Fraction (growth in non-permissive phase divided by growth in permissive phase) (10 μM): 0.6736; Percent (percent AZD3965 score) (10 μM): -2.339%; Z-score (10 μM): 0.1584 |
| CCCCC1=NC2(CCCC2)C(=O)N1Cc1ccc(-c2ccccc2-c2nnn[nH]2)cc1 [Irbesartan] | 0.2232 | 0.7566 | 0.295 | 70.4376 | -3.221 | – | Percent: 70.4376% |
| CC1(C)C=Cc2c(c3c(c4c(=O)c(-c5ccc(O)c(O)c5)coc24)OC(C)(C)CC3)O1 [Isopomiferin] | 0.3372 | 0.788 | 0.4279 | – | -4.042 | – | Percent: 48.4955% |
| Cc1cc(NC(=O)C2=C(O)c3ccccc3S(=O)(=O)N2C)no1 [Isoxicam] | – | – | – | -10.8768 | – | 0.7102 | – |

| Structure (SMILES) | Day1 | Day2 | Fraction | Percent AZD3965 [%] | Z.score | Z-score | also measured |
| --- | --- | --- | --- | --- | --- | --- | --- |
| CCC(C)n1ncn(-c2ccc(N3CCN(c4ccc(OC[C@H]5CO[C@](Cn6cncn6)(c6ccc(Cl)cc6Cl)O5)cc4)CC3)cc2)c1=O (stereo partly drawn) [Itraconazole (Sporanox)] | 0.1402 | 0.7721 | 0.1816 | 94.034 | -3.846 | – | – |
| CCC(C)n1ncn(-c2ccc(N3CCN(c4ccc(OCC5COC(Cn6cncn6)(c6ccc(Cl)cc6Cl)O5)cc4)CC3)cc2)c1=O (stereo not drawn) [Itraconazole] | 0.1402 | 0.7721 | 0.1816 | – | -3.846 | – | Percent: 94.034% |
| O=C(O)/C=C/C=C/c1ccccc1 [JUAREZIC ACID] | 0.2901 | 0.713 | – | – | – | – | Fraction (10 μM): 0.4069; Percent AZD3965 (10 μM): 52.4442%; Z.score (10 μM): -4.371 |
| CC(C(=O)O)c1cccc(C(=O)c2ccccc2)c1 (stereo not drawn) [Ketoprofen] | – | – | – | -2.524 | – | 0.1811 | – |
| O=C(c1ccccc1)c1ccc2n1CCC2C(=O)O (stereo not drawn) [Ketorolac] | – | – | – | -6.212 | – | 0.2944 | – |
| COC1=C(CC=C(C)C)C(=O)c2ccccc2C1=O [LAPACHOL METHYL ETHER] | – | – | – | – | – | – | Fraction (10 μM): 0.2588; Percent AZD3965 (10 μM): 79.1097%; Z.score (10 μM): -4.874 |
| COC1=C(CC=C(C)C)C(=O)c2ccccc2C1=O [Lapachol methyl ester] | 0.1932 | 0.7464 | 0.2588 | – | -4.874 | – | Percent: 79.1097% |
| CC(C)[C@@H]1CC[C@@H](C)C[C@H]1O [Levomenthol] | – | – | – | -4.812 | – | 0.2426 | – |
| COc1ccc2c(c1)c(CC(=O)O)c(C)n2Cc1ccc(Cl)cc1 [Lopac-C-1610] | – | – | – | -0.3223 | – | 0.02285 | – |
| CN1C(C(=O)Nc2ccccn2)=C(O)c2sc(Cl)cc2S1(=O)=O [Lornoxicam] | – | – | – | 3.795 | – | -0.2876 | – |
| Cc1ccc(Nc2c(F)cccc2Cl)c(CC(=O)O)c1 [Lumiracoxib] | – | – | – | 20.0905 | – | -1.521 | – |
| COc1cc(C)c2c(=O)c(-c3ccccc3)coc2c1 [METHOXYVONE] | 0.2578 | 0.8104 | – | – | – | – | Fraction (10 μM): 0.3181; Percent AZD3965 (10 μM): 63.3221%; Z.score (10 μM): -3.147 |
| CC[N+](CC)(CC)CCOc1ccc(/C=C/c2ccccc2)cc1 [MG 624] | 0.0883 | 0.7745 | – | – | – | – | Fraction (10 μM): 0.114; Percent AZD3965 (10 μM): 106.144%; Z.score (10 μM): -7.209 |
| O=C(O)[C@]1(Cc2cccc(Nc3nccs3)n2)CC[C@@H](Oc2cccc(Cl)c2F)CC1 [MK-5108 (VX-689)] | 0.2415 | 0.7782 | 0.3103 | 70.5035 | -3.675 | – | – |
| Cl.O=S(=O)(c1cccc2c(I)cccc12)N1CCCNCC1 [ML-7, reference compound] | – | – | – | – | – | – | Day1 (OD600 after 24 hours non-permissive dark conditions): 0.5245; Day2 (OD600 after additional 24 hours permissive conditions): 0.8146; Fraction (growth in non-permissive phase divided by growth in permissive phase) (10 μM): 0.6439; Percent (percent AZD3965 score) (10 μM): 3.417%; Z-score (10 μM): -0.2325 |
| O=[N+]([O-])/C=C/c1ccc2c(c1)OCO2 [MNS] | 0.0443 | 0.9232 | – | – | – | – | Fraction (10 μM): 0.04799; Percent AZD3965 (10 μM): 118.786%; Z.score (10 μM): -6.684 |
| COc1c(C)c2c(c(O)c1C/C=C(\C)CCC(=O)OCCN1CCOCC1)C(=O)OC2 [MYCOPHENOLATE MOFETIL] | 0.2489 | 0.868 | 0.2868 | 73.799 | -4.824 | – | – |
| COc1c(C)c2c(c(O)c1C/C=C(\C)CCC(=O)O)C(=O)OC2 [MYCOPHENOLIC ACID] | 0.318 | 0.8495 | 0.3743 | 60.7658 | -4.599 | – | – |
| Cc1ccc(Cl)c(Nc2ccccc2C(=O)[O-])c1Cl.[Na+] [Meclofenamate Sodium] | – | – | – | 5.567 | – | -0.3674 | – |
| Cc1cnc(NC(=O)C2=C(O)c3ccccc3S(=O)(=O)N2C)s1 [Meloxicam] | – | – | – | 24.7769 | – | -1.695 | – |
| Nc1ccc(O)c(C(=O)O)c1 [Mesalamine] | – | – | – | -0.6148 | – | 0.03086 | – |
